The test has as its target T1, CLD18A2.
T1 construct: also called claudin 18 splice variant A2; CHO-S-CLD18A2
As to the kind of experiment: cell ELISA on CLD18A2-expressing cells, anti-human IgG Fc detection. Here is the method: The Anti-C18.2-Fc fusion proteins are diluted in gradients with 1% BSA, and the HRP-Goat anti-Human IgG Fc (Novex) secondary antibody is diluted 1:20000. The cell ELISA method is the same as that described in Embodiment 3.2. The software GraphPad Prism v5.0 is used for data processing and mapping analysis. The binding curve and EC50 value of Anti-C18.2-Fc against CLD18A2 in cells are obtained to reflect the affinity of the antibody to CLD18A2.
The affinities of Anti-C18.2-hu19V1-Fc and Anti-C18.2-hu19V3-Fc are similar to that of Anti-C18.2-19-Fc, which are better than that of the positive control ch-175D10.
On the technique in general: ELISA stands for enzyme-linked immunosorbent assay.

Substitutions are numbered along the chain they refer to.

B1: Anti-C18.2-hu19V1-Fc (Fc fusion)
chain: QVQLVESGGGLVQPGGSLRLSCAASGVDISSDVMAWYRQAPGKQREFVSGLTRGGSINYADSVKGRFTISRDNSKNTLYLQMNSLRAEDTAVYYCNAEIYTGTFYPRSYWGQGTLVTVSS[human IgG1 Fc left out]
notes: humanized variant huV1 of C18-19 fused to human IgG1 Fc, expressed in HEK293F
Consider B1, for which the response was half-maximal at 0.82 nM (EC50).

B2: Anti-C18.2-19-Fc (Fc fusion)
chain: B1 chain with N73F, S74A, L78V, Y79D, R86K, A87P
notes: also called Anti-C18.2-Fc fusion protein (clone C18-19)
In the case of B2, a half-maximal response (EC50) required 0.71 nM. This EC50 and that of the molecule before are within 1.5-fold of each other.

B3: Anti-C18.2-hu19V3-Fc (Fc fusion)
chain: B1 chain with Q44G, R45L
notes: humanized variant huV3 of C18-19 fused to human IgG1 Fc, expressed in HEK293F
In the case of B3, a half-maximal effect (EC50) was put at 0.41 nM.

(Values after patent US20220259303A1 (ZHEJIANG DOER BIOLOGICS, published 2022).)
